# Measurements published in PubChem BioAssay AID1508623 (National Center for Advancing Translational Sciences (NCATS), 2021).
# The whole screen tested about 48,000 compounds, of which about 450 (0.94%) were called active. Roughly 19% stayed inconclusive and do not appear here. Calls follow the shape of the dose curve; as a rule, active = well fitted inhibition curve with a large enough effect; inconclusive = small, poorly fitted or top-dose-only effect; inactive = no such curve, though single readings can be large or run the other way. The list shows a part of the results.
# Experiment: Primary qHTS for Identification of Small Molecule Inhibitors of Huntingtin Promoter Activity; also: nearly all actives have a fitted effect of over 50% in size
# Conditions: HEK293 HTT promoter firefly luciferase reporter (activity 0% = vehicle and -100% = no light), 24 h; series mostly up to 57.5 µM; activity change, negative = inhibition: at the top concentration
# Summary of the method: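 Firefly luciferase signal from promoter-reporter HEK293 cells was scaled between vehicle (0%) and zero RLU (-100%). Compounds were tested at final concentrations of up to 57.5 uM over 24 h at 37 degrees C. PTC124 at 50 uM final served as control inhibitor.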
# Potency is read from the fitted curve at half-maximal effect.
SMILES,"activity change, negative = inhibition",Potency
CN(C)CCCNc1oc(/C=C/c2ccc(F)cc2)nc1C#N,inactive: -8.67%,
Cc1ccc(NC(=O)CCCn2c(=O)c3cccn3c3cccnc32)c(Cl)c1,inactive: 0.605%,
O=c1oc2c3c(ccc2c2ccccc12)OCN(Cc1cccc(Cl)c1)C3,inactive: -4.26%,
Cc1c(CCNC(=O)Cc2ccccc2)sc2nc(-c3ccc(F)cc3)nn12,inactive: -14.9%,
CCOc1ccccc1N(C)C(=O)C1CCCN(c2ncnc3onc(-c4ccc(F)cc4)c23)C1 (centres undefined),inactive: -3.54%,
O=C(CN1CCN(Cc2ccc(Cl)cc2)C1=O)NCc1ccc(F)cc1,inactive: -28.4%,
CCOc1ccc(CNC(=O)c2cc3c(=O)n(C)c4ccccc4c3s2)cc1,inactive: -3.1%,
Cc1ccc(NC(=O)Cn2c(=O)n(Cc3ccco3)c(=O)c3ccccc32)cc1,inactive: -4.92%,
Cc1ccc(NC(=O)C2CCCN2S(=O)(=O)c2cccc3cccnc23)cc1 (centres undefined),inactive: -16%,
COc1ccc(-c2ccnc3c(-c4ccc(F)cc4)c(C)nn23)cc1OC,inactive: -3.48%,
CC1CN(C(=O)N2CCC(C(=O)NC3CCCCCC3)CC2)c2cc(Cl)ccc2O1 (centres undefined),inactive: 1.94%,
Cc1cc(C)n2nc(CNS(=O)(=O)c3ccc(Cl)cc3)nc2n1,inactive: 4.02%,
O=C(Cn1cc(SCc2cccc(Cl)c2)c2ccccc21)N1CCOCC1,inactive: 40.5%,
O=c1[nH]c(SCc2ccc(F)cc2)nc2c1CCCC2,inactive: -20.2%,
COc1cc(C(=O)NC2CC(=O)N(c3cccc(F)c3)C2)cc(OC)c1OC (centres undefined),inactive: 9.26%,
CCC(=O)N1CCc2cc(Br)cc(S(=O)(=O)N3CCN(c4ccccc4)CC3)c21,inactive: 6.47%,
CCc1nnc2c(NCc3ccc(F)cc3)nc3ccccc3n12,inactive: -12.9%,
CCOc1ccc2nc(N3CCCC(C(=O)Nc4ccc(Br)c(C)c4)C3)sc2c1 (centres undefined),inactive: 21.4%,
COc1ccc2c(c1)CC(C(=O)N1CCC(C(N)=O)CC1)CO2 (centres undefined),inactive: -11.7%,
COc1ccc2c(c1)NC(c1ccc(OCC(C)C)cc1)=NC(c1ccncc1)=N2,inactive: -19%,
CCOc1ccc(-c2n[nH]c3c2C(c2ccccc2OC)N(c2ccc(Br)cc2)C3=O)cc1 (centres undefined),inactive: 0.501%,
COc1ccccc1N1CCN(C(=O)c2oc3ccccc3c2NC(=O)C(C)Oc2ccccc2)CC1 (centres undefined),inactive: -15.2%,
O=C(Nc1cc(Cl)cc(Cl)c1)c1ccc(F)c(S(=O)(=O)N2CCCCCC2)c1,inactive: -9.54%,
COc1cc2c(=O)n(Cc3ccccc3)c(=O)n(CC(=O)Nc3cc(C(F)(F)F)ccc3Cl)c2cc1OC,inactive: -7.27%,
O=C(Cn1cccc1C(=O)c1ccccc1)NCc1ccc(F)cc1,inactive: 5.25%,

SMILES,"activity change, negative = inhibition",Potency
COC(=O)c1cc2oc(C)cc2n1Cc1c(C)cc(C)cc1C,inactive: -0.566%,
COc1ccc(C2c3c(n(C)c4ccccc34)C(=O)N2CC(=O)Nc2ccc(Cl)cc2)cc1 (centres undefined),inactive: -30.4%,
CCOC(=O)c1c(C)oc2ncnc(NCCc3ccccc3)c12,inactive: -17.3%,
CCc1ccc(N2CCn3c2nc2c3c(=O)n(Cc3cccc(C)c3)c(=O)n2C)cc1,inactive: 0.101%,
COc1cc2nc(SCC(=O)Nc3ccc(F)cc3)n3nc(CCn4c(C)nc5ccccc54)nc3c2cc1OC,inactive: 1.33%,
Cc1ccc(OC(=O)c2snnc2C)cc1C,inactive: -3.45%,
Cc1ccc(NC(=O)C(=O)NCC(c2ccc3c(c2)OCO3)N2CCOCC2)c(C)c1 (centres undefined),inactive: -8.87%,
O=C(CSc1ncc2c(n1)-c1ccccc1N(Cc1ccc(F)cc1)S2(=O)=O)c1ccc(Br)cc1,inactive: -10.7%,
CCCN1CCN(CCNC(=O)Nc2cc(OC)cc(OC)c2)CC1,inactive: -1.42%,
Cc1cccc(NC(=O)CSc2nc3ccc(NC(=O)c4cccs4)cc3s2)c1,inactive: -2.16%,
CC(C)c1ccc(OCc2cc(=O)n3c4c(sc3n2)CCCC4)cc1,inactive: -4.29%,
COc1ccccc1NC(=O)CN(c1ccc(C(C)C)cc1)S(=O)(=O)c1c(C)noc1C,inactive: -23.6%,
CCOC(=O)c1ccc(CSc2nnc3cc(C)c4ccccc4n23)cc1,inactive: -9.88%,
COc1ccc(-c2oc3ncn4nc(-c5ccc(Cl)cc5)nc4c3c2-c2ccc(OC)cc2)cc1,inactive: -9.99%,
CCN(CC)CCN(C(=O)c1ccco1)c1nc2c(C)cccc2s1,inactive: 24.7%,
CCCCOC(=O)CC(CC(=O)OCCCC)(OC(C)=O)C(=O)OCCCC,inactive: 1.12%,
COc1cccc(CNC(=O)COc2cc(=O)n(C)c3ccccc23)c1,inactive: 12.6%,
COc1ccc(S(=O)(=O)Nc2ccc(-c3cn4c(C)csc4n3)cc2)cc1,inactive: -16.1%,
Cc1ccc(N2CCN(S(=O)(=O)c3cccc4ccccc34)CC2)cc1Cl,inactive: -0.84%,
O=C(Nc1cccc(C(F)(F)F)c1)c1cc(CN2CCOCC2)on1,inactive: -12.6%,
CCCCNC(=O)c1ccc2c(c1)ncn2-c1cc(OC)ccc1OC,inactive: -15.2%,
Cc1c(Cl)cccc1-n1ncc(C(=O)Nc2ccc(Br)cc2F)c1C1CCNCC1,inactive: -6.29%,
CCCNc1ccc(-c2nc(-c3ccccn3)no2)cc1[N+](=O)[O-],inactive: 53.5%,
COC(=O)c1ccc(NC(=O)CCn2cnnn2)cc1,inactive: -5.65%,
CCOc1ccccc1CNCc1cccn1-c1nnc(N2CCN(c3ccccc3)CC2)s1,,active: 25.1 µM

SMILES,"activity change, negative = inhibition",Potency
CCN(CCCNC(=O)c1nn(-c2ccc(OC)cc2)c(=O)c2c1c1ccccc1n2C)c1ccccc1,inactive: -7.28%,
CCc1cccc(NC(=O)CCNS(=O)(=O)c2cccc3nonc23)c1,inactive: -15.6%,
COc1ccccc1NC(=O)C1=C(C)Nc2nnnn2C1c1ccc(C(F)(F)F)cc1 (centres undefined),inactive: -17%,
CC(C)(C)CC(=O)NCC(c1ccc2c(c1)OCO2)N1CCN(c2ccccc2)CC1 (centres undefined),inactive: -21.7%,
CCC(C)NC(=O)Cn1c(=O)n(CCCCCC(=O)NCc2ccccc2Cl)c(=O)c2sccc21 (centres undefined),inactive: -18.2%,
CC(=O)c1ccc(NC(=O)c2cc(-c3ccc(C)s3)nc3ccccc23)cc1,inactive: 1.62%,
CCOC(=O)N1CCc2c(sc3c2c(=O)n(CCc2ccccc2)c(=O)n3CC(=O)Nc2ccc(C)cc2)C1,inactive: 3.24%,
CCOC(=O)c1ccc(NC(=O)CSc2ccc3ccccc3n2)cc1,inactive: 3.34%,
COc1ccccc1C(=O)NCC(c1cccnc1)N1CCc2ccccc2C1 (centres undefined),inactive: -23.3%,
Cc1cccc(N2CCN(C(=O)CN3C(=O)CSc4c3c(C)nn4-c3ccccc3)CC2)c1C,inactive: -8.97%,
CCc1ccc(NC(=O)[C@H](Cc2ccccc2)N2Cc3ccccc3C2=O)cc1,inactive: -13.4%,
CCOc1ccc(S(=O)(=O)c2c(C(=O)c3ccc(CC)cc3)cnc3ccc(C)cc23)cc1,inactive: -21.1%,
COc1cc(NC(=O)CCc2c(C)nn(-c3ccc4nnc(C)n4n3)c2C)cc(OC)c1OC,inactive: -1.44%,
CCOc1ccc(N2CC(NC(=O)c3cccs3)CC2=O)cc1 (centres undefined),inactive: 3.09%,
CCCN(CCC)CCCNC(=O)c1cc2c(-c3ccc(OC)c(OC)c3)nn(C)c2s1,inactive: -3.5%,
Cc1ccc(S(=O)(=O)n2nc(-c3ccccc3)nc2NCc2ccc(Cl)cc2)cc1,inactive: -10.6%,
O=C1CC(c2nc(-c3ccc(Cl)cc3)no2)CN1c1ccc2c(c1)OCCO2 (centres undefined),inactive: -14.7%,
O=C(CSc1nc2c([nH]c3ccccc32)c(=O)n1-c1ccccc1)N1CCc2ccccc21,inactive: -12.7%,
CSc1ccc(CCNC(=O)CCn2c(=O)c3cccn3c3ccc(F)cc32)cc1,inactive: -4.96%,
C[C@]1(Cn2ccnn2)[C@H](C(=O)O)N2C(=O)C[C@H]2S1(=O)=O,inactive: 7.18%,
CCOC(=O)c1c(NC(=O)c2cc3ccccc3c(=O)o2)sc2c1CCC(C)C2 (centres undefined),inactive: -2.33%,
Cc1ccc(SCC(=O)Nc2ccc3oc(-c4ccccc4C)nc3c2)cc1,inactive: 61.8%,
COc1ccc(-n2c(=O)c3ccccc3n(CC(=O)Nc3ccccc3OC)c2=O)cc1,inactive: -18.1%,
COc1cc(OC)cc(C(=O)Nc2cc3c(cc2N2CCCC2)n(C)c(=O)c(=O)n3C)c1,inactive: -5.58%,
Cc1ccc2c(CC(=O)Nc3c(C(=O)c4ccc(C)c(F)c4)oc4ccccc34)coc2c1,inactive: -16.9%,

SMILES,"activity change, negative = inhibition",Potency
CCOc1ccc(NC(=O)c2cnc3ccccn3c2=O)cc1,inactive: 30.5%,
CC(CN(C)C)C(C)(O)Cc1ccc(Cl)cc1 (centres undefined),inactive: 8.26%,
CCN(CC)CCCCNc1ncc2cc(-c3cc(OC)cc(OC)c3)c(NC(=O)NC(C)(C)C)nc2n1,inactive: -23.1%,
COc1ccc(S(=O)(=O)c2c(O)c3ccc(C(=O)NCc4ccc(F)cc4)cc3[nH]c2=O)cc1,inactive: -0.629%,
Cc1ccc(CNC(=O)c2cc(C)nc3c2c(C)nn3-c2ccc(C)cc2)cc1,inactive: -10.5%,
CC[C@@H](CO)NCCN[C@@H](CC)CO,inactive: 11.9%,
O=C(Nc1ccc(Oc2ccccc2)cc1)C1CCN(S(=O)(=O)c2ccc(Cl)cc2)CC1,inactive: -28.5%,
COc1ccccc1NC(=O)CCCc1nnc2n(C)c(=O)c3sccc3n12,inactive: -8.22%,
CCOC(=O)c1cc(S(=O)(=O)NCc2ccc(C)cc2)[nH]n1,inactive: 0%,
Cc1ccc2nc3sc(C(=O)NCCCN(C)c4ccccc4)cc3cc2c1,inactive: 15.6%,
Fc1cccc(-n2ncc3c2ncn2nc(Cc4ccccc4)nc32)c1,inactive: -10.5%,
COc1ccc(NC(=O)CSc2ccc3nc(-c4ccccc4)cn3n2)cc1OC,inactive: 10.9%,
CC(C)NC(=O)c1nn(-c2ccccc2F)nc1CO,inactive: -21.2%,
CC(N=C(NC#N)Nc1ccncc1)C(C)(C)C (centres undefined),inactive: 8.69%,
Cc1ccccc1Nc1c(-c2ccc(N3CCOCC3)cc2)nc2ccccn12,inactive: 29.9%,
Cc1ccc(CNC(=O)CN2C(=O)COc3ccc(S(=O)(=O)Nc4ccccc4)cc32)cc1,inactive: -14.9%,
CC(C)(C)OC(=O)N1CCC(c2nnc(SCc3cccc(Cl)c3)o2)CC1,inactive: -36.4%,
Cc1cc(C)cc(NC(=O)CSc2nc(-c3ccccc3)c3cc(F)ccc3n2)c1,inactive: -6.8%,
Cc1ccc2c(c1)-c1ncc(C(=O)c3ccccc3O)cc1CO2,inactive: 12.3%,
Cc1ccc(C(=O)NC2=NC(c3ccc(C)cc3)CC(=O)N2)cc1 (centres undefined),inactive: -14.3%,
CC(=O)OCC(=O)[C@@]1(OC(C)=O)[C@@H](C)C[C@H]2[C@@H]3C[C@H](F)C4=CC(=O)C=C[C@]4(C)[C@@]3(F)[C@@H](O)C[C@@]21C,inactive: -5.68%,
CC(=O)c1ccc(NC(=O)c2cc3sccc3n2Cc2ccc(F)cc2)cc1,inactive: -11.7%,
Cc1cc(C)cc(NC(=O)c2cc(CN3CCCC3)on2)c1,inactive: 65.7%,
CCCCCOC(=O)CSc1ncnc2sc3c(c12)CCC(C)C3 (centres undefined),inactive: 9.82%,
